In US20240190994A1, “FUSION PROTEIN BETWEEN ANTIGEN-BINDING MOLECULE AND STREPTAVIDIN VARIANT” (The University of Tokyo, priority 2021, published 2024):

Experiments:
[1] = molecular target: T1, HER2 (ErbB2); Recombinant Human ErbB2/Her2 Fc Chimera Protein (Homo sapiens, UniProt P04626); assay: SPR (Biacore T200) binding activity of FL to HER2; conditions: Her2 immobilized, FL 2-fold dilution series 1 E-08 M to 6.25 E-10 M, FIG. 2
T1 construct: purchased R & D SYSTEMS
Description: The purified FL was analyzed using SPR (Biacore T200, Cytiva), in terms of the binding activity to HER2 (ErbB2). The Her2 antigen (Recombinant Human ErbB2/Her2 Fc Chimera Protein, R & D SYSTEMS) was immobilized on a Sensor Chip CMS (Cytiva) according to an amine coupling method (Amine Coupling Kit, Cytiva). Subsequently, the binding activity was measured using the FL dilution series (2-fold dilution series from 1 E-08 M to 6.25 E-10 M).

[2] = SPR (Biacore T200) binding activity of FL to Psyche, single cycle kinetics; conditions: FL immobilized, Psyche 2-fold dilution series 1 E-08 M to 6.25 E-10 M, FIG. 3
Description: The purified FL was analyzed using SPR (Biacore T200, Cytiva), in terms of the binding activity to Psyche. The FL was immobilized on a Sensor Chip CMS (Cytiva) according to the amine coupling method, and the binding activity of the FL to Psyche was then analyzed according to a single cycle kinetics method using Psyche dilution series (5 series, 2-fold dilution series from 1 E-08 M to 6.25 E-10 M) as analytes.

[3] = system: Her2-positive cells (KPL-4); assay: cytotoxicity using FL2 linker variants and photosensitizer Psyche, Cell Counting Kit-8; type: cell-based, Human; conditions: complex of protein with photosensitizer Psyche (Compound 8) molar ratio 1:2, 10-fold dilutions from 10 μg/mL, 690-nm light 100 J/cm^2, FIGS. 9A to D
Description: Her2-positive cells (KPL-4) were seeded on a 96-well plate to result in a cell count of 1×10^4 cells/well and a culture solution amount of 50 μL/well, and were then cultured overnight. The purified FL2-G5Sx3-del5, FL2-G4Sx1-del5, FL2-G4Sx2-del5 or FL2-G4Sx3-del5 and the photosensitizer Psyche (Compound 8 produced in the above Production Example 6) were mixed with each other to a molar ratio of 1:2 (hereinafter referred to as a “complex”), and 8 series of 10-fold dilution series (including zero concentration) were prepared from 10 μg/mL. After the dilution series had been prepared, the complex was added to the cells, and 24 hours later, the cells were irradiated with an LED emitting a 690-nm light at 100 J/cm^2 from the bottom surface of the culture plate. Thereafter, the cells were cultured for 24 hours. After the complex-containing medium had been removed, the cells were washed with PBS once, and a fresh medium was then added. A comparison was then made in terms of the number of living cells, using Cell Counting Kit-8 (DOJINDO LABORATORIES). A reagent was added in accordance with the dosage and administration described in the instruction manual, and the resulting cells were then incubated at 37° C. in a CO2 incubator for 1.5 hours. After that, the absorbance at 450 nm was measured, and the mean value was then calculated, followed by background correction. Thereafter, the control was set at 100%, and the cell proliferation percentage to the control under individual conditions was calculated. The results are shown in (FIGS. 9A to D).

Molecule	binding activity to HER2 [1]	binding activity to Psyche [2]	cytotoxicity (cell proliferation percentage to control) [3]
FL: fusion of Cupid mutant streptavidin (SEQ ID NO: 1) with HER2-recognizing molecule (SEQ ID NO: 2); amino acid sequence SEQ ID NO: 4 (protein) MVDNKFNKEMRNAYWEIALLPNLNNQQKRAFIRSIYDDPSQSANLLAEAKKLNDAQAPKSGGGGGSGGGGGSGGGGGSAEAGITGTWSDQLGDTFIVTAGADGALTGTYENAVGGAESRYVLTGRYDSAPATDGSGTALGWTVAWKNNSKNAHSATTWSGQYVGGADAKINTQWLLTSGTTNANAWKSTLVGHDTFTKVKPSAASHHHHHH	stable binding activity	stable binding activity	
FL2-G5Sx3-del5: SEQ ID NO: 10, formed by removing the 11 C-terminal amino acids … from SEQ ID NO: 4 (protein) MVDNKFNKEMRNAYWEIALLPNLNNQQKRAFIRSIYDDPSQSANLLAEAKKLNDAQAPKSGGGGGSGGGGGSGGGGGSAEAGITGTWSDQLGDTFIVTAGADGALTGTYENAVGGAESRYVLTGRYDSAPATDGSGTALGWTVAWKNNSKNAHSATTWSGQYVGGADAKINTQWLLTSGTTNANAWKSTLVGHDTFTKVK			light- and concentration-dependent cytotoxicity
FL2-G4Sx1-del5: SEQ ID NO: 22; linker of 1 unit of 4 glycine residues and 1 serine residue (protein) MVDNKFNKEMRNAYWEIALLPNLNNQQKRAFIRSIYDDPSQSANLLAEAKKLNDAQAPKGGGGSAEAGITGTWSDQLGDTFIVTAGADGALTGTYENAVGGAESRYVLTGRYDSAPATDGSGTALGWTVAWKNNSKNAHSATTWSGQYVGGADAKINTQWLLTSGTTNANAWKSTLVGHDTFTKVK			light- and concentration-dependent cytotoxicity
FL2-G4Sx2-del5: SEQ ID NO: 23; linker of 2 units of 4 glycine residues and 1 serine residue (protein) MVDNKFNKEMRNAYWEIALLPNLNNQQKRAFIRSIYDDPSQSANLLAEAKKLNDAQAPKGGGGSGGGGSAEAGITGTWSDQLGDTFIVTAGADGALTGTYENAVGGAESRYVLTGRYDSAPATDGSGTALGWTVAWKNNSKNAHSATTWSGQYVGGADAKINTQWLLTSGTTNANAWKSTLVGHDTFTKVK			light- and concentration-dependent cytotoxicity
FL2-G4Sx3-del5: SEQ ID NO: 24; linker of 3 units of 4 glycine residues and 1 serine residue (protein) MVDNKFNKEMRNAYWEIALLPNLNNQQKRAFIRSIYDDPSQSANLLAEAKKLNDAQAPKGGGGSGGGGSGGGGSAEAGITGTWSDQLGDTFIVTAGADGALTGTYENAVGGAESRYVLTGRYDSAPATDGSGTALGWTVAWKNNSKNAHSATTWSGQYVGGADAKINTQWLLTSGTTNANAWKSTLVGHDTFTKVK			light- and concentration-dependent cytotoxicity
